The densities may have been worked out from excess volumes.
Assay: xn = mol fraction of the nth substance listed
Details: 101 kPa

CC(CC(C)(C)C)CP(=O)([O-])CC(C)CC(C)(C)C.CCCCCCCCCCCCCC[P+](CCCCCC)(CCCCCC)CCCCCC + CCCCCCCCCCCC
mass density [kg/m3]
Details | x1 = 0.4684 | x1 = 0.6647 | x1 = 1
293.15 K | 858.5 | 873.2 | –
298.15 K | – | 870.2 | 887.5
303.15 K | 852.3 | 867.2 | –
308.15 K | – | 864.2 | –
313.15 K | 846 | 861.1 | 878.3
318.15 K | 842.8 | – | –
323.15 K | 839.7 | 855 | 872.3
328.15 K | 836.6 | 851.9 | –
333.15 K | 833.4 | 848.9 | 866.4
338.15 K | 830.3 | – | –
343.15 K | 827.1 | – | –
348.15 K | – | 839.8 | –
353.15 K | – | 836.8 | 854.5

CCCCCCCCCCCCCC[P+](CCCC)(CCCC)CCCC.CCCCCCCCCCCCc1ccccc1S(=O)(=O)[O-] + CCCCCCCCCCCC
mass density [kg/m3]
Details | x1 = 0.354 | x1 = 0.4844 | x1 = 0.6789 | x1 = 1
293.15 K | – | 907.4 | – | –
298.15 K | 881.2 | 904.2 | 928.6 | –
303.15 K | 877.9 | 900.9 | 925.2 | 952.5
308.15 K | 874.6 | – | 922 | –
313.15 K | – | – | 918.8 | 942.8
318.15 K | 868 | 891.2 | – | –
323.15 K | 864.8 | 888 | 912.5 | 936.6
328.15 K | – | 884.8 | – | –
333.15 K | 858.2 | 881.6 | 906.3 | 930.4
338.15 K | – | – | 903.2 | –
343.15 K | 851.6 | 875.2 | – | 924.3
348.15 K | 848.3 | 872 | 897 | –
353.15 K | 845 | 868.8 | – | 918.3
358.15 K | 841.7 | – | – | –
363.15 K | 838.4 | 862.4 | – | –

CCCCCCCCCCCCCC[P+](CCCCCC)(CCCCCC)CCCCCC.N#C[N-]C#N + CCCCCCCCCCCC
mass density [kg/m3]
Details | x1 = 0.5534 | x1 = 0.736 | x1 = 1
293.15 K | 868.8 | 885.6 | –
298.15 K | 865.8 | 882.6 | 899.8
303.15 K | 862.8 | 879.6 | –
308.15 K | – | 876.7 | –
313.15 K | 856.7 | – | 891.1
318.15 K | 853.7 | 870.9 | –
333.15 K | 844.7 | 862.1 | 880.2
338.15 K | 841.6 | 859.2 | –
343.15 K | – | 856.3 | 874.3
348.15 K | 835.6 | 853.4 | –
353.15 K | 832.6 | 850.5 | –
358.15 K | 829.6 | – | –
363.15 K | – | 844.6 | –
